According to patent US20220411494A1 (ALAMAB THERAPEUTICS, published 2022):

T1: FcγRIIa (UniProt P12318 36-218, limits assumed)
T1 construct: It was captured through an anti-His tag antibody; The construct is not described; also called FCRIIa
T1 sequence (looked up): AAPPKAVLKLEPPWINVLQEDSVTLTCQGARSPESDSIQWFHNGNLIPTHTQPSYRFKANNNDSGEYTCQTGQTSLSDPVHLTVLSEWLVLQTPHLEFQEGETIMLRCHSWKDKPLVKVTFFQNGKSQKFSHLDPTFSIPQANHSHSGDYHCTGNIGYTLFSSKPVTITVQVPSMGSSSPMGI

T2: FcγRIIb (UniProt P31994 46-217, limits assumed)
T2 construct: It was captured through an anti-His tag antibody; The construct is not described; also called FCRIIb
T2 sequence (looked up): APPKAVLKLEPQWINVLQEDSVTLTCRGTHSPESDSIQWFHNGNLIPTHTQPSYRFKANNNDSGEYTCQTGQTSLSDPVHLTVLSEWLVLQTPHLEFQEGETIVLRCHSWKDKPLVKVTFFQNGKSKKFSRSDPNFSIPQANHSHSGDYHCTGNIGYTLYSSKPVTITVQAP


Legend:
C1q = C1q (UniProt P02745; P02746; P02747); assay: ELISA, antibody coated at 3 µg/mL, C1q titrated
C1q, sequence (P02745 23-245 limits assumed, chain 1 of 3): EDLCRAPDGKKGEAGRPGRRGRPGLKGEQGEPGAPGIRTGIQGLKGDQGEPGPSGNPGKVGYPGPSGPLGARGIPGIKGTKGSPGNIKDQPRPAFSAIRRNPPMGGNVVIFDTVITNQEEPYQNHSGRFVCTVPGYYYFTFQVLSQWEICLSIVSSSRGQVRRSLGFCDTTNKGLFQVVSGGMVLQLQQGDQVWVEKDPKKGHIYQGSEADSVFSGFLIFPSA
C1q, sequence (P02746 28-253 limits assumed, chain 2 of 3, further chain): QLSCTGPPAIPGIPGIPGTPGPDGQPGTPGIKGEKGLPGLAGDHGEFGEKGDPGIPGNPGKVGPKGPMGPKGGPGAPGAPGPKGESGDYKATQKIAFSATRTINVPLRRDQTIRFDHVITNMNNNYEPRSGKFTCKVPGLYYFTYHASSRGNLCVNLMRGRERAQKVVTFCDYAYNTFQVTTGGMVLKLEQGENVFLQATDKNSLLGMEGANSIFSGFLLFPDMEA
C1q, sequence (P02747 29-245 limits assumed, chain 3 of 3, further chain): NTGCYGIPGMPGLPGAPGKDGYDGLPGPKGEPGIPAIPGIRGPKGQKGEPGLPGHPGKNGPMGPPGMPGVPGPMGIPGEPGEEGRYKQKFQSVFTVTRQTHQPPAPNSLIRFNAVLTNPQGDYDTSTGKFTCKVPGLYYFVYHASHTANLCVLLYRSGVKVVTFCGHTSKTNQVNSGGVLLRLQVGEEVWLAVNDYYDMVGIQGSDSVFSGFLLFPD
Method: Plates (Nunc) were coated with antibodies at 3 μg/mL overnight at 4° C. After blocking and washing, C1q was half-log titrated in blocking buffer (600, 189.75, 60.01, 18.98, 6.00, 1.90, 0.60, 0.19, 0.06 and 0.02 μg/mL) and incubated at room temperature for 2 h. The plates were then washed and subsequently incubated with secondary antibody Sheep anti-human C1q Ab-HRP for 1 h. After washing, TMB substrate was added and the interaction was stopped by 2M HCl.

FcγRIIa = molecular target: T1, FcγRIIa; assay: SPR Biacore 8K, His-captured receptor, antibody as analyte, steady state affinity
Method: (§1) The activator was prepared by mixing 400 mM EDC and 100 mM NHS immediately prior to injection. The CM5 sensor chip was activated for 420 s with the mixture. 30 μg/mL of THE™ His tag antibody in 10 mM NaAc (pH 4.5) was then injected to channels 1-8 for 400 s at a flow rate of 30 μL/min. The chip was deactivated by 1 M ethanolamine-HCl (GE).
(§2) 1 μg/mL FcγRIIa, FcγRIIb, FcγRIIIa, or FcγRIIIb in running buffer (1×HBS-EP+) was injected to Fc2 of channel 1-8 at a flow rate of 10 μL/min for 15 s. Analytes were injected to channel 1-8 respectively. A series of analyte concentrations (seeing Table 3 below) were monitored at a flow rate of 30 μL/min for an association phase of 60 s, followed by 90 s dissociation. 10 mM glycine pH 1.5 as regeneration buffer was injected following every dissociation phase.
(§3) Surface channels Fc1 without capturing ligand was used as control surface for reference subtraction. Final data of each interaction was deducted from reference channel and buffer channel data. The experimental data of antibodies binding to FcγRIIa, FcγRIIb, FcγRIIIa, and FcγRIIIb was fitted by steady state affinity mode and shown in Table 4 below.

FcγRIIb = molecular target: T2, FcγRIIb; assay: as above
Method: as §1, §2, §3

CD64 [1] = molecular target: T3, CD64 (UniProt P12314 16-288, limits assumed); assay: SPR Biacore 8K, CD64 captured by anti-His antibody, antibody as analyte, 1:1 binding fit
T3 construct: The construct is not described; also called FCRI
Method: as §1
(§4) 2 μg/mL CD64 in running buffer (1×HBS-EP+) was injected to Fc2 of channel 1-4 at a flow rate of 10 μL/min for 30 s. 6 concentrations (40, 20, 10, 5, 2.5 and 1.25 nM) of analyte Ab #C, Ab #G and running buffer were injected orderly to Fc1-Fc2 of channel 1-4 at a flow rate of 30 μL/min for an association phase of 180, followed by 400 dissociation. Repeat 6 cycles of capturing ligand and running analyte according to analyte concentrations in ascending order. 10 mM glycine pH 1.5 as regeneration buffer was injected following every dissociation phase. 2 μg/mL CD64 in running buffer (1×HBS-EP+) was injected to Fc2 of channel 1-6 at a flow rate of 10 μL/min for 30 s. […] Repeat 8 cycles of capturing ligand and running analyte according to analyte concentrations in ascending order. 10 mM glycine pH 1.5 as regeneration buffer was injected following every dissociation phase.
Surface channels Fc1 without capturing ligand was used as control surface for reference subtraction. Final data of each interaction was deducted from reference channel and buffer channel data. The experimental data of Ab #C, Ab #G binding to CD64 was fitted by 1:1 binding mode. The 10240 nM curves of analyte Ab #K, Ab #O, Ab #S were removed to allow a better fit.

human FcRn = molecular target: T4, human FcRn (human, UniProt P55899 part only; P61769 part only); assay: SPR Biacore 8K, antibody immobilised on CM5, FcRn as analyte, pH 6.0, steady state affinity
T4 construct: The construct is not described
Method: Buffer of human FcRn was exchanged to running buffer (50 mM Na₂HPO₄, 50 mM NaH₂PO₄, 150 mM NaCl, 0.05% Tween20, pH 6.0) using desalting column according to the instruction manual. The concentration was determined by Nanodrop.
Analyte FcRn was injected to channel 1-8 respectively. 8 concentrations of FcRn (0, 93.75, 187.5, 375, 750, 1500, 3000 and 6000 nM) were monitored at a flow rate of 30 μL/min for an association phase of 60 s, followed by 90 s dissociation. After each cycle of interaction analysis, the sensor chip surface was regenerated with 1×PBS (pH 7.4) at a flow rate of 10 μL/min for 30 s.
Surface channels Fc1 without immobilized antibodies were used as control surface for reference subtraction. Final data of each interaction was deducted from reference channel and buffer channel data.

CD64 [2] = molecular target: T3, CD64; assay: SPR Biacore 8K, CD64 captured by anti-His antibody, antibody as analyte, steady state affinity
T3 sequence (P12314 16-288 limits assumed): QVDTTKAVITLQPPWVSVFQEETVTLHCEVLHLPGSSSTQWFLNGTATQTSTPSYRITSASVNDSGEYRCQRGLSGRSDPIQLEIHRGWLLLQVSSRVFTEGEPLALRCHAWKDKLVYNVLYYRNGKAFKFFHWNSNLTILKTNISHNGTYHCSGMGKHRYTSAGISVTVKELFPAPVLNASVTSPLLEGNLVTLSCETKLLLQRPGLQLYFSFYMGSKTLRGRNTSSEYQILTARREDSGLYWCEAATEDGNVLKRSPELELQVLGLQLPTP
Method: as §1, §4
Surface channels Fc1 without capturing ligand was used as control surface for reference subtraction. Final data of each interaction was deducted from reference channel and buffer channel data. […]

Row | binding result (C1q) | Kd (FcγRIIa) | Kd (FcγRIIb) | Kd (CD64 [1]) | koff (CD64 [1]) | kon (CD64 [1]) | Kd (human FcRn) | Kd (CD64 [2]) | Binder
1 | no binding | 17900 nM | 13200 nM | 4.65 nM | 0.00223 s⁻¹ | 480000 M⁻¹ s⁻¹ | 2390 nM |  | Ab#G (antibody, human IgG4 S228P, kappa, HCDR2 is printed with 'Na' (the NG to NA change)) heavy: EVQLVQSGAEVKKPGASVKVSCKASGYTFTSYYMYWVRQAPGQGLEWIGGINPSNAGTNFNEKFKNRATLTVDKSTSTAYMELSSLRSEDTAVYYCTREGNPYYTMNYWGQGTLVTVSSASTKGPSVFPLAPCSRSTSESTAALGCLVKDYFPEPVTVSWNSGALTSGVHTFPAVLQSSGLYSLSSVVTVPSSSLGTKTYTCNVDHKPSNTKVDKRV[… human IgG4 Fc with S228P (EU numbers) …] light: DIVMTQSPDSLAVSLGERATISCKSSQSLLNSGNQKTYLAWYQQKPGQPPKLLIYGASTRESGVPDRFSGSGSGTDFTLTISSLQAEDVAVYYCQNDHSYPFTFGQGTKLEIKRTVAAPSVFIFPPSDEQLKSGTASVVCLLNNFYPREAKVQWKVDNALQSGNSQESVTEQDSKDSTYSLSSTLTLSKADYEKHKVYACEVTHQGLSSPVTKSFNRGEC
2 | no binding |  |  |  |  |  | 2430 nM | 2610 nM | Ab#S (antibody, human IgG4 S228P, kappa, F234A L235A) heavy: EVQLVQSGAEVKKPGASVKVSCKASGYTFTSYYMYWVRQAPGQGLEWIGGINPSNAGTNFNEKFKNRATLTVDKSTSTAYMELSSLRSEDTAVYYCTREGNPYYTMNYWGQGTLVTVSSASTKGPSVFPLAPCSRSTSESTAALGCLVKDYFPEPVTVSWNSGALTSGVHTFPAVLQSSGLYSLSSVVTVPSSSLGTKTYTCNVDHKPSNTKVDKRV[… human IgG4 Fc with S228P F234A L235A (EU numbers) …] light: DIVMTQSPDSLAVSLGERATISCKSSQSLLNSGNQKTYLAWYQQKPGQPPKLLIYGASTRESGVPDRFSGSGSGTDFTLTISSLQAEDVAVYYCQNDHSYPFTFGQGTKLEIKRTVAAPSVFIFPPSDEQLKSGTASVVCLLNNFYPREAKVQWKVDNALQSGNSQESVTEQDSKDSTYSLSSTLTLSKADYEKHKVYACEVTHQGLSSPVTKSFNRGEC
